Reference: publication PMC9767926, “Mechanism of human Lig1 regulation by PCNA in Okazaki fragment sealing” (Nature Communications, 2022)

What was measured:
Test in all cases: FRET or BRET; steady-state retention of PCNA-Cy3 (500 nM) on nicked DNA-Alexa Fluor 647 (500 nM, 3' ddC, one end blocked with 1 uM NeutrAvidin) pre-bound to Lig1 or variants; FRET between PCNA-Cy3 and the DNA; excitation 480 nm, 22 °C; deconvoluted Alexa Fluor 647 amplitude above baseline
Details in all cases: both partners purified
[1] = target: T1, full-length human DNA Ligase 1 (Lig1), wild type (human, UniProt P18858 1-919)
T1 construct: residues 1-919; also called Lig1_WT; source: E. coli BL21 (DE3), purified (phosphocellulose, HiTrap Q, HiTrap Blue, Superdex 200)

[2] = target: T2, Lig1 Q390A/R391A/L392A/M393A/L394A mutant (human, UniProt P18858 1-919, Q390A | R391A | L392A | M393A | L394A)
T2 construct: Generated by PCR from Lig1_WT; also called Lig1_QRLML; source: E. coli BL21 (DE3), purified (phosphocellulose, HiTrap Q, HiTrap Blue, Superdex 200)

[3] = target: T3, N-terminus deleted Lig1 (residues 233-919) (human, UniProt P18858 233-919)
T3 construct: source: E. coli BL21 (DE3), purified (HisTrap, HiTrap Blue, SUMO protease, HisTrap flow-through, Superdex 200)

Measured: binding result

B1: Cy3-labeled PCNA N107C (natural protein)
chain: not shown
modifications: Cy3 maleimide label, final stoichiometry 3:1 Cy3 to PCNA trimer
notes: human PCNA with N107C, labeled with Cy3 maleimide; also called PCNA-Cy3
binds: all assays above
